± gives the standard deviation of the averaged measurements. Some of the results follow.
These sequences were tested on PfAP2-G AP2 domain (GST-tagged) (assay: gcPBM binding intensity (ln(normalized median fluorescence intensity)); higher = stronger DNA binding).
Procedure, shortened: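 GST-tagged P. falciparum DNA-binding domains produced in E. coli were incubated for 1 h on an Agilent 4 × 180k array of primer-extended double-stranded 36-bp intergenic genomic probes with negative controls. Binding intensity is the highest Masliner-normalised natural-log median intensity across replicate spots of either probe orientation, with bound protein detected by Alexa488 anti-GST antibody at 488 nm.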

Sequence	gcPBM binding intensity (ln)
ATATATCCAATATATATATATATATATATATATATA [CACACA_negctrl_site160]	9.93 ± 0.53
TTTATTATCTTATTCACACACATATATAAATATGTA [CACACA_site7369]	10.05 ± 0.085
AAAAAAAAAACATACACACACACAAATATTTATATA [CACACA_site437]	9.85 ± 0.11
AACATAATAAAAAAACGTACATAATTTTATATACAT [XGTACX_site6602]	11.4 ± 0.76
TTCTTAGATTGTACAGTACACACCTTTAGAATGTTA [CACACA_site212]	11.3 ± 0.74
AATTCATTTTACCCATGTACACAATTATATTTTATA [XGTACX_site4127]	11.6 ± 0.83
TACTACCACGGACATGCATGCACATTATTACTCTAA [TGCATGCA_site313]	10.8 ± 0.52
ATAATATAGAAACACACACACATATATATATACATT [CACACA_site555]	9.92 ± 0.028
TTTATATATAAATATATATATATATATATATATATA [TGCATGCA_negctrl_site121]	9.72 ± 0.28
TAGTTTTTATATAGCACACATATTGTGATTATGTAT [CACACA_site1196]	10.03 ± 0.064
AAATTATGTGCCAATACACACACACCGATATATATA [CACACA_site8050]	10.3 ± 0.19
AAGAAAAAATGATGAATAGAGATCAAATCTATATAT [TGCATGCA_negctrl_site29]	9.58 ± 0.27
TACAAAATAAATGGAACATGCAAAAAAATTGATTAA [TGCATGCA_site790]	9.77 ± 0.26
AAAAAAAAAAAAAAAACACACATTTTAAGAAAAAAA [CACACA_site2926]	10.4 ± 0.16
ATATGCTATTATATATGTACACACCAATTTATTTAT [XGTACX_site8364]	11.5 ± 0.89
ATATATATGTATGTATGTACACACAAAAAATGGAAT [XGTACX_site7879]	11.5 ± 0.79
TTAAAATAGCTAGTTTGTACATAAAATATATTACTT [XGTACX_site202]	10.8 ± 0.49
AATATATATATATATATTTTTGTTAGAATATGGAAT [GTGCAC_negctrl_site434]	9.87 ± 0.16
TAAATAAATAAAAATAGTACATAATTATTATTATTA [XGTACX_site4981]	11 ± 0.68
TTTTAAAAAATATAATAATATAAATATGTTTTATAC [CACACA_negctrl_site643]	9.55 ± 0.11
ATATATATATGTTTGTGTACTTATGATATCATATAA [XGTACX_site3276]	11.5 ± 0.99
ATTATATTCTTTACTACCAATTAGTAGAAAATAAAA [CACACA_negctrl_site1096]	10.3 ± 0.3

Sequence	gcPBM binding intensity (ln)
CTTAATAAGAATAAATGTACAAGGGATAAAAAATTT [XGTACX_site3213]	10.8 ± 0.38
TATTTAATTATTTGTAGTACGATTAATATTTAATGA [XGTACX_site3553]	11 ± 0.62
ATAGAATATTAATAATTAAAAATAAAATAAAATAAA [CACACA_negctrl_site1810]	9.63 ± 0.16
ATAACTTTTTAAAAGACACACATAAGAAAAACAAAA [CACACA_site723]	10.3 ± 0.26
ATAAAACGAAGATGTTGTACGTACAAATAAATGAAT [XGTACX_site2472]	11.6 ± 0.83
AACGTTCATAATTATTGTACCCTCATTTTATTTTTT [XGTACX_site503]	11.2 ± 0.6
AAAAATTTTAATTAGGAACACACATATATATATATA [CACACA_site9016]	10.2 ± 0.3
TTAATTAATTTTTCAGTGCAAATAAAAAATATTTAA	9.95 ± 0.23
CAAAAGTAAGCACGCACACACAACATGAAATAAACT [CACACA_site6223]	10.29 ± 0.078
TATACGCAGAAACACACACACATACACCCACATACA [CACACA_site1723]	10.5 ± 0.43
TATCTTATAAACTCTGCACACATAATATATTAAATG [CACACA_site8587]	10.3 ± 0.18
TATATTAGAAAGGATACACACATATATATATATCTA [CACACA_site570]	9.92 ± 0.13
TTAAACTTGAAACACACACACACACCGATATAAAAA [CACACA_site4578]	10.2 ± 0.18
GATTACTAGAAATGCACACACTGATAAAATAAGGAA [CACACA_site6131]	10 ± 0.13
TATATATATGAGTATACACACCTGATAAAGGTATAT [CACACA_site5462]	10.1 ± 0.099
AGAAATATATCTATTTGTCCGTATATTCATATTTAT [XGTACX_site8427]	10.8 ± 0.5
ATAAAAATATTGTCTAGTACATATTTATAATAAAAA [XGTACX_site7523]	10.8 ± 0.35
AGATTGGAACATTAAAGTACTTACTTTTTTTTTTTT [XGTACX_site8017]	11.2 ± 0.75
ATTTTGACATTATATAGTACATATAATTTACATTTA [XGTACX_site3024]	10.8 ± 0.61
TATATATATATGTGTACACATTTGTCAGATTATATA [CACACA_site4813]	11.6 ± 0.87
ATTTTTTTTTTTTTTTTTTTTGCACCATAAAATAAT [CACACA_negctrl_site1324]	10.3 ± 0.38
TATATACTCAAACACACACACACATACACAGACATA [CACACA_site5025]	10.4 ± 0.34

Sequence	gcPBM binding intensity (ln)
TCTTTATCTTCTTATACACACATTTATTAAAAAAAA [CACACA_site445]	10.3 ± 0.37
TGACATAAAAAATATACACACTATAATATTTATACT [CACACA_site6776]	9.76 ± 0.11
ATTTTTTAAAAAGTAACACACACTCTTATATATAAT [CACACA_site9206]	10.19 ± 0.085
ATATATTTAAACAAAAGTACAAATCATAAATTCAAG [XGTACX_site3633]	11.1 ± 0.77
TATATATTCTTTTAATGTACATATTGTATTATATCC [XGTACX_site4501]	11.1 ± 0.54
GTTAACAAATAATGCACACAAATGGATAAAATTATA [CACACA_site3725]	10.05 ± 0.014
TTAACCATTAATTCTCTACACACTTTTATTTTATTT [CACACA_site8522]	9.9 ± 0.12
TATATAAGAATATATACACACATATATGTATATATA [CACACA_site2178]	9.71 ± 0.11
TTTTACAATGAAATATGTACTTAAATGTCCAAATTC [XGTACX_site781]	11.2 ± 0.84
AAAAAGAAAAATTGCACACACTTATAAAAATATACG [CACACA_site6074]	10.2 ± 0.19
AATAAGTATACACATACACACACACCCAAAAAAAAA [CACACA_site8034]	10.4 ± 0.38
CATTTTGTAAGATATGCACACATGGATCATATTTTA [CACACA_site423]	10.16 ± 0.085
TTTTTTTTTATCAAATGTACATATATATAATAATAA [XGTACX_site3941]	11.2 ± 0.76
TATTATTAATATGTATGGTTGTAATCTGTGTCTCCT [TGCATGCA_negctrl_site190]	10.2 ± 0.15
AATATAATTTTTTATTGTACAAAAAAATTATTTAAT [XGTACX_site3248]	10.9 ± 0.59
AAGAACAAATATGAGGTGCAACACAATATATTATTA [GTGCAC_site9965]	9.945 ± 0.021
AGGCACAAAATTAAATGTACATATATATATATATAT [XGTACX_site3323]	11 ± 0.6
ATGGGTATTAAGTGTACACATATAGTGTATTTTGTT [CACACA_site4452]	11.6 ± 0.98
GTGTAAATATAATTAGTTTCACAAAACAAATATTTA [CACACA_negctrl_site717]	9.84 ± 0.16
AAAAAAAAAAGACACACACACATATTTATTTATATA [CACACA_site6484]	9.93 ± 0.042
AATATATAAGTGTTGTGTACTAAAGTATTTTCCTAT [XGTACX_site1622]	11.3 ± 0.47
CATATACAGAAACACACACACACATAAATAAATATA [CACACA_site1343]	10.1 ± 0.3

Sequence	gcPBM binding intensity (ln)
TTTAATTAAATATGTATATATATTCATGTATGTATA [GTGCAC_negctrl_site14]	9.72 ± 0.085
AGTAGATATAAAAGGAGTACACATATATATATAAAT [XGTACX_site4375]	11.6 ± 1
TGTTTTTGTGATCATATGAAAAAATTACCTACAAGG [CACACA_negctrl_site279]	10.4 ± 0.4
TTTAATCAAATTAAAAGTACAGAATTGTTCATGTAG [XGTACX_site1229]	11.5 ± 0.95
ATATATATATATTCCACACACACACTAATAAAAAAA [CACACA_site9214]	10.2 ± 0.27
AAAAAATATTATATATGTACATAATATTTTTTTTTT [XGTACX_site5909]	11.1 ± 0.59
ATAGTATCTGGTAGCTGTACGAGTCGTATAGTGCAG [XGTACX_site2542]	11.3 ± 0.87
TTTCCGTATAATTTTGCACACGAATATAAATTTGAT [CACACA_site137]	10.2 ± 0.11
ATAGTTTTACACATTTGTACATAATTTACAACAAAA [XGTACX_site25]	10.9 ± 0.52
TAATTTAATAATTAGACACACATGTCTAAAATAAAA [CACACA_site2527]	9.745 ± 0.035
AAAAGAAATTTGGGCACATGCGAATTTATAATTTAT [TGCATGCA_site960]	10.4 ± 0.29
TAAAGTATTACAACCACACACACACCGATATATTAT [CACACA_site9382]	10.19 ± 0.099
TTTTTTATATATATTTGTACATATTGCATGTTCCCT [XGTACX_site7143]	10.8 ± 0.38
TGTCTTATATATATTACACACTATATGAAAAAATAT [CACACA_site1487]	9.98 ± 0.17
TATATTTATCTGATAACACACATAAATTAGACATTT [CACACA_site6887]	9.71 ± 0.028
TATATATATATATATACATGCATATTTTTTATTTTT [TGCATGCA_site464]	9.8 ± 0.39
AATATGGTTATATATATATATATATATATATATATT [GTGCAC_negctrl_site566]	9.67 ± 0.071
AAATAAAATACAAGTTGTACTATAAGCTTTTTATAT [XGTACX_site8021]	11.1 ± 0.48
CAACATTTATATTTTACACACATCATTTAAGCGCTT [CACACA_site992]	10.09 ± 0.078
TTATTATATAAAATAAATAACAAAAAAAATAAAATA [GTGCAC_negctrl_site548]	9.675 ± 0.092
ATTGTTTTATATAGAACACACATAAAAATCTATATG [CACACA_site6681]	10.1 ± 0.13
CCTATCCATACATATACACACATATCTATTTATATA [CACACA_site1669]	10.15 ± 0.035

From the supplement of paper PMC11417369
